Test results reported in PubChem BioAssay AID651820 (National Center for Advancing Translational Sciences (NCATS), 2012).
Screen size: about 340,000 compounds; about 12,000 (3.5%) were called active. The inconclusive results got no clear call from the source; some entries with a clear call stand among them for comparison. The call rests on the fitted dose curve; in most records, active means well fitted inhibition curve with a large enough effect; inconclusive means small, poorly fitted or top-dose-only effect, or another doubt; inactive means no such curve, though single readings can be large or run the other way. Potencies of inconclusive entries are left out as doubtful fits.

Test: qHTS Assay for Inhibitors of Hepatitis C Virus (HCV)
Conditions: Huh7.5.1 HCVcc-Cre (HCVcc is cell-culture hepatitis C virus) infection, luciferase reporter, 44 h; activity change, negative = inhibition: at 41.8 µM (top of the series) unless noted
How it was run: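 Infectious HCV cell culture screen: compound-treated cells (1,000/well, pre-plated 4 h) are infected with HCVcc-Cre at roughly 0.5 moi and grown 44 h. Infection is quantified by luciferase signal after 15 min substrate incubation at room temperature.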
On the % scale 0 is the no-effect control and ±100 the full control effect; potency means the concentration at half of the fitted maximal effect; tags describe the fitted curve by direction and shape.

Row | SMILES | Potency | activity change, negative = inhibition
1 | CC(C)C(c1nnnn1Cc1ccc(F)cc1)N1CCN(Cc2ccc3c(c2)OCO3)CC1 (centres undefined) | inconclusive [inhibitor, single point] | 
2 | CC1(C)C2CCC(C2)C1C/C=N/NC(N)=S (centres undefined) |  | inactive: -5.43%
3 | C/C(CC(=O)Nc1ccccn1)=N\NC(=O)c1ccccc1O | active: 7.08 µM | 
4 | CCN(CC)S(=O)(=O)c1ccc(-c2nnc(SCC(=O)N3CCOCC3)o2)cc1 |  | inactive: 12.8%
5 | CCOc1cc(-c2nnc(-c3ccco3)o2)cc(OCC)c1OCC | inconclusive [inhibitor, full curve] | 
6 | CCCCC(=O)Nc1cccc(NC(=O)c2ccc3c(c2)OCO3)c1 | active: 2.82 µM | 
7 | CCC(=O)N=c1sc2c(OC)ccc(OC)c2n1C | inconclusive [inhibitor, full curve, poor fit] | 
8 | CCSc1nnc(NC(=O)CSc2nc3c(c(=O)n2CC)SC(C)C3)s1 (centres undefined) | inconclusive [inhibitor, partial curve] | 
9 | COC(=O)c1cc(NC(=O)c2cccs2)ccc1N1CCOCC1 | inconclusive [inhibitor, single point] | 
10 | Cc1cc2nc(-c3ccc(SCC(=O)N4CCN(C(=O)c5ccco5)CC4)nc3)[nH]c2cc1C | inconclusive [inhibitor, single point] | 
11 | O=S(=O)(c1cccs1)N1CCN(c2ccc(O)cc2)CC1 | inconclusive [inhibitor, single point] | 
12 | C/C(=N\NS(=O)(=O)c1ccc([N+](=O)[O-])cc1)c1ccc(NC(=O)c2ccco2)cc1 | inconclusive [inhibitor, single point] | 
13 | COc1ccc(N(CC(=O)NC2CCCCC2)C(=O)c2ccc(C)s2)cc1OC |  | inactive: -3.8%
14 | O=[N+]([O-])c1ccc(C(O)C[n+]2ccccc2)cc1 (centres undefined) |  | inactive: 11.5%
15 | CCNc1ccc(Br)cc(C(=O)/C=C/c2ccccc2Cl)c1=O | active: 12.6 µM | 
16 | COC(=O)c1cccc(N/C=C(\[N+](=O)[O-])S(=O)(=O)c2ccccc2)c1 |  | inactive: -0.926%
17 | COc1cc(C(=O)NC2CCCc3ccccc32)ccc1OCC(=O)Nc1ccc(F)cc1 (centres undefined) |  | inactive: -13.1%
18 | O=S(=O)(NC1CC1)c1ccc(S(=O)(=O)N2CCc3ccccc32)cc1 | inconclusive [inhibitor, partial curve] | 
19 | COc1ccc(-c2cc3onc(-c4c(Cl)cccc4Cl)c3c(=O)n2C)cc1 | inconclusive [inhibitor, full curve] | 
20 | NC1=C(Br)C(=O)c2ncccc2C1=O | inconclusive [inhibitor, full curve] | 
21 | COc1ccc(CN2CCC(CO)(Cc3cccc(C(F)(F)F)c3)CC2)cc1Cn1cccn1 | inconclusive [inhibitor, partial curve] | 
22 | O=C(Nc1ccc(S(=O)(=O)N2CCCC2)cc1)c1cnccn1 | inconclusive [inhibitor, full curve, poor fit] | 
23 | COc1cccc(N2CCN(CC(=O)Nc3ccccc3C(=O)NCCc3ccccc3)CC2)c1 | inconclusive [inhibitor, single point] | 

Row | SMILES | Potency | activity change, negative = inhibition
24 | CC1CCN(C(=O)COC(=O)C2CCN(S(=O)(=O)c3ccc4c(c3)OCCO4)CC2)CC1 |  | inactive: 10.9%
25 | CC(O)CNc1ccc([N+](=O)[O-])cc1S(=O)(=O)N1CCOCC1 (centres undefined) |  | inactive: 11.7%
26 | COc1ccc(-c2nc(CSCC(=O)NCC3CCCO3)c(C)o2)cc1OC (centres undefined) |  | inactive: 4.63%
27 | Cc1cc(Cl)c2oc(C(=O)NCCN3CCOC3=O)c(C)c2c1 | inconclusive [inhibitor, single point] | 
28 | COc1ccc(N(CC(=O)NCCSCc2ccco2)S(=O)(=O)c2ccc(C)cc2)cc1 | inconclusive [inhibitor, partial curve] | 
29 | COc1ccccc1OCc1ccc(C(=O)NC(C)(C)C)o1 | inconclusive [inhibitor, full curve] | 
30 | C/C=C/Cn1c(SCc2ccc(C)cc2)nc2c1c(=O)[nH]c(=O)n2C | inconclusive [inhibitor, full curve] | 
31 | CCn1c(-c2ccc(C)cc2)nn(CC(=O)NCCc2ccccc2)c1=S | inconclusive [inhibitor, single point] | 
32 | COc1ccc(N(CCC(=O)Nc2ccccc2F)S(=O)(=O)c2ccc(C)cc2C)cc1 | inconclusive [inhibitor, single point] | 
33 | Cc1cccc(-c2nc(C#N)c(N3CCCCCC3)o2)c1 | active: 25.1 µM | 
34 | C=CCN=C1S/C(=C/c2cccc([N+](=O)[O-])c2)C(=O)N1CC=C | inconclusive [inhibitor, single point] | 
35 | CCOc1ccc(NC(=O)CN(C)C(=O)c2cc(C)on2)cc1OCC |  | inactive: 8.89%
36 | CN1CCN(S(=O)(=O)c2ccc(N3CCN(c4ccc(O)cc4)CC3)c([N+](=O)[O-])c2)CC1 | inconclusive [inhibitor, single point] | 
37 | Cc1nnc(SCC(=O)c2cc(C)n(-c3ccc4c(c3)OCO4)c2C)s1 | active: 11.2 µM | 
38 | CN(C)S(=O)(=O)c1ccc(/C(O)=C2/C(=O)C(=O)N(CCCN3CCOCC3)C2c2ccncc2)cc1 (centres undefined) |  | inactive: 10.1%
39 | CCCCc1ccc(/C=C2\C(=O)c3ccccc3C(O)=C2C(=O)OCC)cc1 | inconclusive [inhibitor, partial curve] | 
40 | Cc1cc(OCc2cc(C(=O)O)oc2C)c2c3c(c(=O)oc2c1)CCCC3 | inconclusive [inhibitor, single point] | 
41 | Cc1ccc2oc(C(=O)N(Cc3ccncc3)CC3CCCO3)c(C)c2c1 (centres undefined) | inconclusive [inhibitor, single point] | 
42 | O=C(c1cc(COc2cccc(C(F)(F)F)c2)on1)N1CCC(Oc2cccnc2)CC1 | active: 11.2 µM | 
43 | CN(C)/C=C(/C(=O)c1ccccc1)n1cncn1 |  | inactive: 3.18%
44 | CCOc1c2ccoc2nc2c(OC)c(OC)ccc12 | inconclusive [inhibitor, partial curve] | 
45 | CCn1cc(C(=O)N2CCN(c3ccc([N+](=O)[O-])cc3)CC2)c(=O)c2ccc(C)nc21 | inconclusive [inhibitor, partial curve] | 
46 | Cc1cc(C)c2nc(-c3cccc(Cl)c3)c(C)c(C(=O)N3CCOCC3)c2c1 | inconclusive [inhibitor, partial curve, poor fit] | 

Row | SMILES | Potency | activity change, negative = inhibition
47 | O=C(NCc1ccco1)c1ccc(Cn2c(=O)c3ccccc3n(Cc3cccc(Cl)c3)c2=O)cc1 | inconclusive [inhibitor, partial curve] | 
48 | COc1ccc(NC(=O)CN(C)C(=O)CNC(=O)Cc2cccc3ccccc23)cc1 |  | inactive: 0.327%
49 | O=C(COc1ccc2c(-c3ccccc3)cc(=O)oc2c1)Nc1cccnc1 | inconclusive [inhibitor, full curve, poor fit] | 
50 | COc1ccc(C(C)NC(=O)c2cccc([N+](=O)[O-])c2)cc1OC (centres undefined) |  | inactive: -10.2%
51 | CN(C)S(=O)(=O)c1ccc(C(=O)Nc2nnc(-c3cccs3)o2)cc1 | inconclusive [inhibitor, single point] | 
52 | CS(=O)(=O)Nc1cccc(C2=NN(C(=O)c3cccc(F)c3)C(c3cccs3)C2)c1 (centres undefined) | inconclusive [inhibitor, single point] | 
53 | O=C(Nc1ccc2c(c1)OCO2)c1cc(-c2ccc(O)cc2)on1 | inconclusive [inhibitor, partial curve] | 
54 | CCOC(=O)c1c(C)n(-c2ccccc2)c2ccc(O)c(CN(C)C)c12 | inconclusive [inhibitor, partial curve, poor fit] | 
55 | Cc1nn(-c2ccccc2)c(C)c1/C=C/C(=O)OC(C)C(=O)Nc1ncc(Cl)cc1Cl (centres undefined) | inconclusive [inhibitor, full curve] | 
56 | CC(C)N(C(C)C)S(=O)(=O)c1ccc(NN)nc1 | inconclusive [inhibitor, single point] | 
57 | Cc1ccc(S(=O)(=O)Nc2ccc3ccccc3c2[N+](=O)[O-])cc1 |  | inactive: -0.367%
58 | CN(CC1CCCN(CCc2ccc(F)cc2)C1)C(=O)CCC(F)(F)F (centres undefined) | inconclusive [inhibitor, single point] | 
59 | CC(C)(CNC(=O)c1cccs1)N1CCOCC1 |  | inactive: -1.17%
60 | COCCCN1C(=O)/C(=C/c2ccc(CNS(=O)(=O)c3ccccc3)o2)C(C(=O)OC)=C1C | inconclusive [inhibitor, full curve, poor fit] | 
61 | O=c1c2ccccc2c(C=Nc2ccc(O)cc2)c(O)n1Cc1ccccc1 | inconclusive [inhibitor, single point] | 
62 | C[n+]1ccc(/C=C/c2cccs2)cc1 | inconclusive [inhibitor, full curve] | 
63 | O=C(NCc1ccc2c(c1)OCO2)c1ccc(COc2cc(Cl)ccc2Cl)o1 | inconclusive [inhibitor, single point] | 
64 | CN(C)c1ccc(-c2n(C)c3ccccc3[n+]2C)cc1 | active: 8.91 µM | 
65 | Fc1ccccc1N1CCN(C(c2cccs2)c2nnnn2CCc2ccccc2)CC1 (centres undefined) | inconclusive [inhibitor, single point] | 
66 | Cc1ccc(S(=O)(=O)NC2CC(=O)N(c3ccc4c(c3)OCCO4)C2)cc1 (centres undefined) | inconclusive [inhibitor, single point] | 
67 | O=c1[nH]cccc1-c1nc2ccccc2n1Cc1ccc(F)cc1 |  | inactive: 15.3%
68 | COc1ccc(S(=O)(=O)Cc2ccc(C(=O)NCC(OC)OC)o2)cc1 |  | inactive: 19.9%
69 | CCn1c2ccccc2c2cc(NC(=O)CSc3nnc(-c4cccc(F)c4)o3)ccc21 | inconclusive [inhibitor, partial curve] | 
